Among the data in the RNAGym collection of RNA variant scans (doi:10.1093/nar/gkz1192) are self-cleavage values, retold here.

The labels stand for the following.
B1: CPEB3 Ribozyme (parent)
chain: UAACAGGGGGCCACAGCAGAAGCGUUCACGUCGCAGCCCCUGUCAGAUUCUGGUGAAUCUGCGAAUUCUGCUGUAUAUCUC

Read counts are not given, so values of variants with three or more changes are uncertain.

This data set covers variants of B1. Kind of data set: self-cleavage, relative activity (ratio to wild type); higher = more cleavage; in vitro, sequencing. An outline of the steps: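 Libraries of CPEB3 self-cleaving ribozyme mutants came from rounds of error-prone PCR and carried barcodes, which DNA sequencing matched to variants. In vitro transcription used T7 RNA polymerase at 37°C for 5 hours, with a further 15 min in DNase I before EDTA stopped the reaction; the ribozymes cleaved during both steps. The RNA was reverse transcribed with template switching and sequenced on Illumina. Relative activity is the cleaved/total read fraction of a variant divided by that of the unmutated ribozyme, averaged over three batches with at least 5 reads.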
Turning to C12U A45G A57G, the self-cleavage amounted to 0.99. Turning to C12U A21G U48A U49A U74C, the self-cleavage came out at 0.93. The result for C11G A13U U41C U49C U69C A77G C81A reads 0.16.

As for C11U A13G C50U A56U, the self-cleavage was 0.12. The result for C11G U66A A75G reads 0.08; that for C12A A13G A21G G55C, 0.42; that for C11U C23U A45G U48A, 0.19. With C11G C23A U49A A56G, the self-cleavage stood at 0.14.

Take C12G C23U U25G: the self-cleavage stood at 0.05.

As for C11A U43C C44A, the self-cleavage turned out to be 0.31. For the variant C11G A20G G24A A47G A65C, the self-cleavage is 0.05. The result for C11A A13U A64U U76C C79G reads 0.07; that for C11G G19A U25G U78A C81A, 0.23; that for G10U U26C U54C A56G U60A U72C, 0.05. Consider G10U C11G G52C, for which the self-cleavage stood at 0.26.

In the case of C11G G19A U26A C32U C39A, the self-cleavage amounted to 0.08. Consider C11U U49C A75G, for which the self-cleavage is 0.18.

In the case of C12A A20U G70U U78C, the self-cleavage turned out to be 0.1.

As for C11U U25A U43A U49C, the self-cleavage came out at 0.32. The result for C11U U26A C38U U66A U72C U76A reads 0.08; that for C11U A57G G70A, 0.19; that for G10C U26A A35G U58A, 0.14. On to C11G A20G C32A A45G U78C U80C, for which the self-cleavage is 0.04.

Regarding C11U A35U C40U A75G, the self-cleavage was 0.06.

As to C12A A65U U66C, the self-cleavage turned out to be 0.39. On to G10U U26A U41C U69G U80C, for which the self-cleavage was 0.06. As to G10U A28G A57G, the self-cleavage came to 0.19.

On to G10U U26A A64G U69C, for which the self-cleavage was found to be 0.04. The same measure for C12A A15C A21G U31C A64G: 0.36. For C12U A21U C40U U43A G61A, the self-cleavage turned out to be 0.14. The same measure for C11G G16A G42A A45U A47G U51C U66C: 0.02. The result for C12U A15G U25C U26C C44U reads 0.32; that for C12A C17G G24U A35G A64U U80A, 0.04. For the variant C12U A18G A21G U43G A75U, the self-cleavage turned out to be 0.31. The result for C11G A21U C27G A47G U67C reads 0.04. On to C11A U31C A35U A56G U74C, for which the self-cleavage was 0.05.

For the variant C12A A21G U31C G33A U80A, the self-cleavage came to 0.22. The result for C12U A64G A75U reads 1.28; that for C11A G53U U58C U69C, 0.17; that for C11U A13G U31C U43C A56U G63A U66C, 0.12.

C11U U31G U48C A57G U66A: the self-cleavage was found to be 0.05. The result for C11U G16C U43C U69A reads 0.14; that for G10U C23U U41G U43C A56G U76C, 0.04.

On to C11U U26A U66C, for which the self-cleavage stood at 0.14. The same measure for C11G A47U A64G: 0.09. The same measure for G10C U49C U72C: 0.35; for C12U A13G A21U U26A A45G G46A A77G: 0.05. As for C12G A13G A28G U49A U60C C62U U80A, the self-cleavage is 0.11. The same measure for C12G A21G A56G: 0.17. For the variant C11U A45U U51A, the self-cleavage amounted to 0.25. Consider G10C U26C U31C A45G A65G, for which the self-cleavage turned out to be 0.17. The result for C12A A15U A21G U80A reads 0.2; that for C12U A21G U43A U80A, 1.09.

In the case of C11A U25C A57G A75G, the self-cleavage worked out at 0.04.

Take C12A U54C U72C: the self-cleavage worked out at 1.16.

As for C12U A13U U43C U48A U49C A64U U67C, the self-cleavage amounted to 0.04.

In the case of C11U A15G U78C, the self-cleavage amounted to 0.52. Regarding C12A G19C U69C, the self-cleavage is 0.09. The result for C12U A21C A56G A57U U60C U72C reads 0.13; that for C11U A45C A64U, 0.08; that for C12U A13G U80C, 0.55. The same measure for C12A C27U U54A U80C: 0.3; for C12U A13U U58C U78C: 0.72. The same measure for C11G A13U A20C C39A U72C C81G: 0.04; for C11G A13G U26C G33U: 0.06. As for C11U A64G U66C, the self-cleavage was 0.22. C11U C12G U31C A35G U49C: the self-cleavage was 0.14. The same measure for G10U A47G U78C: 0.08. The result for C11G C32U U43C A45C A75G reads 0.1; that for G10A U60A U69C U72A, 0.05. The same measure for C12U A18U U26C A45U A47C A65G U67C: 0.04; for C11A G30A A77G: 0.07.

On to C11A A18G G24U U43A A65G U66C U78A, for which the self-cleavage is 0.03. C12A C17U G30U U54C A77U U80C: the self-cleavage is 0.2. For C11U U31A U76C U80C, the self-cleavage came to 0.09. Regarding C11G G24A U25C, the self-cleavage is 0.35. The same measure for G10C A28U A45G U54C: 0.11; for C11U U60A C62U: 0.06.

As to G10U C17U C68A, the self-cleavage is 0.19. The same measure for C12G G42A C44G U60A: 0.19; for C12U C14U A21G U49C: 0.17. As for C11U A13G U25C A64U U69A, the self-cleavage was found to be 0.03. The result for C12U A35G U41C reads 1.33. The same measure for G10C A15G C23U U25C U31A C37U U60C: 0.05; for C12A A15G C40U: 0.72; for C11G U26A U58C A64G A65U: 0.03. For the variant C11U C29G C32U, the self-cleavage amounted to 0.03.

For the variant C11U A64G A65G U78C, the self-cleavage is 0.11. The result for C11U C23U G24C U60A A64U U72C reads 0.05.

For the variant C12G A21G U25C U31A, the self-cleavage stood at 0.25. In the case of G10C A28U U49C G52U, the self-cleavage came out at 0.04.

Take C11G A18G A45G U54C: the self-cleavage turned out to be 0.29. Take C11G A15G C39G U72C: the self-cleavage was 0.36. On to C11U A56G U66C, for which the self-cleavage turned out to be 0.09. The same measure for C11U G46U A47G: 0.22. The same measure for C12U A15G U67C U80C: 0.11; for C11G A20G U74G: 0.2. The result for G10C U43C U48C A65U U67C reads 0.13. As for G10U G33A C44U A45U U48C A56G U74A, the self-cleavage was found to be 0.03.

For C11U A15U A45G A47G U48C A56U, the self-cleavage stood at 0.16. The result for C12A C17G U31A reads 0.11; that for C11G G19U G53A, 0.3; that for C12G G33A A35G G36A A45G A47G, 0.07. The result for G10C U54A U69A reads 0.15; that for C11U U31A U43C, 0.34. For the variant C11U A18U A28G A47G A56U U72C U80A, the self-cleavage was 0.04.

As for C11G U31A U43C A45G, the self-cleavage was found to be 0.3. The same measure for C12U A18U A21G U43A: 0.25. The same measure for C12U A15G U43C U67A: 0.08; for G10C C12A A47G: 0.09; for C12G C23U U48C C68U: 0.03. For C11A A18G C38U U60A U72C, the self-cleavage is 0.04.

Regarding C12U A13U C14A C17G U43C U67C, the self-cleavage was determined as 0.08. Consider G10A U54C C68U, for which the self-cleavage was found to be 0.08. The same measure for C11G C14U A15G G24A A57G: 0.08. The result for G10C A35G U58C U72C reads 0.2; that for C12U A13U A21G A28G A56U A57G U67C, 0.35; that for C11G G55A A56G A65G U80C, 0.08. For C11G A28G U31C, the self-cleavage came out at 0.08. For the variant C11U U51G A77U, the self-cleavage was found to be 0.23. Consider C12U A15C U41C U66C U72C U76C, for which the self-cleavage came to 0.76.

C12U A21U A65G: the self-cleavage came out at 0.4. Regarding C11A A21G U26C, the self-cleavage stood at 0.06. Regarding C11A A18G U31A C32G U58C U69A, the self-cleavage amounted to 0.04.

C11G G30U U60G: the self-cleavage worked out at 0.08. The same measure for C12U A20G U41C: 1.24; for C12U A45U A57G U80C: 0.47.

Take G10C G19A C34A A45G: the self-cleavage was determined as 0.07. In the case of C11A A18U C29U U31G, the self-cleavage came to 0.07. The result for C12U A20G A21G A45G U69C U78C reads 0.04; that for C12G U41C G73A, 0.96; that for C11G A13G A15C U31C U43G U58A U74A, 0. Consider C12U A13G U49C U67A U80G, for which the self-cleavage is 0.07. The same measure for C11G A15G A56G U67A C81A: 0.06; for G10C A15U A56U U58A: 0.11; for C11G U76C U80A: 0.35.

Consider G10C A35G U54A A56G, for which the self-cleavage was 0.1. In the case of C11U A13U U41A U72A, the self-cleavage amounted to 0.06.

Regarding C11G U25G U43A U48C U54C U78C, the self-cleavage turned out to be 0.05. The result for G10A U49C U67C reads 0.09. The same measure for C11A U54C A77C: 0.1; for C11G U25G U43A A45C U49A: 0.06. Take C11G G33A C37U C81A: the self-cleavage is 0.04.

For C11U A15G A56G U72C, the self-cleavage was 0.29. As for C11A U41C A65G, the self-cleavage was 0.2. For the variant C12G A18U U80C, the self-cleavage worked out at 0.41. Regarding G10C U48C U54A C79G, the self-cleavage was 0.09. With C12A C44U A56G, the self-cleavage came out at 0. The result for G10C U31C U41C U69G U72A reads 0.06. With C12A U25C A35G A57C, the self-cleavage came to 0.14. Take C11A U31C U54A: the self-cleavage was found to be 0.13. With C11A A13G A20U C40A U49C U72C U80C, the self-cleavage was 0.03.

Turning to C12U A20G C23U A35U A57G A64G U80C, the self-cleavage was determined as 0.07. The result for C11G A15G U26A C40G reads 0.04. As to C12A A45U A65G, the self-cleavage is 0.22.

For the variant C12G A18G U43C, the self-cleavage worked out at 0.31. As for C12A U49A A57G, the self-cleavage amounted to 0.46. The result for C11G G24C U25C U51C U72A reads 0.23; that for C11U A20G A28G A64G, 0.25; that for C12U A20G C29U U69C, 0.16. With C12U A28G C39A, the self-cleavage amounted to 0.05.

With C12U A47G U69C, the self-cleavage amounted to 1.02.

For C11G U25C G42U U54G U66A G70U, the self-cleavage came out at 0.06. For C12G U43C C44G, the self-cleavage was found to be 0.16. Turning to C11G C39A G63A A64G U66C, the self-cleavage is 0.04.

Consider G10U G36U C50U U60C, for which the self-cleavage worked out at 0.05.

Regarding C11G A15G A28U U80G, the self-cleavage was 0.1.
